Source: paper PMC4336329 (PLoS ONE, 2015)
The whole screen tested about 310,000 compounds, of which about 14,000 (4.5%) showed an effect of 50% or more. Effects have a minus sign here. The list shows a part of the results.

The compounds below were run against human ether-à-go-go-related gene (hERG) potassium channel (human, UniProt Q12809) (assay: primary screen, population patch clamp on CHO cells stably expressing hERG).
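Note: peak tail current of the secondary pulse compared with the same well before compound.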

human ether-à-go-go-related gene (hERG) potassium channel, sequence (Q12809 whole entry, looked up): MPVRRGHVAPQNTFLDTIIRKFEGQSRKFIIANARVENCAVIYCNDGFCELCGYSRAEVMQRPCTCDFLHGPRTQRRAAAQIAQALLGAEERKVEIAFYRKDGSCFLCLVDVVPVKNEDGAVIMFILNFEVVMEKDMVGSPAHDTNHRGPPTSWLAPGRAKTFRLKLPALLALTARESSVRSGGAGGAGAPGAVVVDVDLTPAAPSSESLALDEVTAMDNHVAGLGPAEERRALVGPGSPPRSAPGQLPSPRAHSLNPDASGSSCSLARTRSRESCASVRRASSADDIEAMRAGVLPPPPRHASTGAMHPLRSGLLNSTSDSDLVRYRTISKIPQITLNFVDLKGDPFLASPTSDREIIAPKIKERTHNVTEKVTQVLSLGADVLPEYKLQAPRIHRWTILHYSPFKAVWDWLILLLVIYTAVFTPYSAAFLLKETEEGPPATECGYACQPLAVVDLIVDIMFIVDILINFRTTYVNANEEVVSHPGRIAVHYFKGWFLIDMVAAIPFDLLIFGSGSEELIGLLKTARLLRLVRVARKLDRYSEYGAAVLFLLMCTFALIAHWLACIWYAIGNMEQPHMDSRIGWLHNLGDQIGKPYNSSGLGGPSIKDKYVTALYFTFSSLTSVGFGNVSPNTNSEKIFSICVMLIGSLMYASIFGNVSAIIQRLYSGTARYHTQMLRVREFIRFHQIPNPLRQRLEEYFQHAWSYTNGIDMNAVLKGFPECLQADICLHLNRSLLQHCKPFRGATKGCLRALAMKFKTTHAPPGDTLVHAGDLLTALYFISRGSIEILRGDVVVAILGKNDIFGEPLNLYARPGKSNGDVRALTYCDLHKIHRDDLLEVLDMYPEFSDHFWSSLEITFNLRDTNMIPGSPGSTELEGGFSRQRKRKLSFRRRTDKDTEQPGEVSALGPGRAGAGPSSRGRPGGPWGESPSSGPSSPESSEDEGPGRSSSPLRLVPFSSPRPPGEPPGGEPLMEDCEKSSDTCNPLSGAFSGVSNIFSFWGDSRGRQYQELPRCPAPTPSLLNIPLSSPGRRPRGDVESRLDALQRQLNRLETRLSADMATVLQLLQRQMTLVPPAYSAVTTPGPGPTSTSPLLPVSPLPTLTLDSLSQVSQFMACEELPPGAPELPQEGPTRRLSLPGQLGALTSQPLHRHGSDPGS

| SMILES | hERG current change (%, negative = inhibition) at 10uM |
| --- | --- |
| CS(=O)(=O)Cc1ccc(C(=O)Nc2cccc(-c3nc4ccccc4[nH]3)c2)cc1 | 7.22% |
| Cc1occc1-c1nnc(SCC(=O)N2CCN(c3ccc(F)cc3)CC2)n1C | -58.5% |
| Cc1ccc(NC(=O)/C(=C\C=C\c2ccccc2)NC(=O)c2ccccc2)cc1 | 19.4% |
| C#CCN1C(=O)C(O)(CC(=O)/C=C/C=C/c2ccccc2)c2ccccc21 (stereo not drawn) | 21.6% |
| CCOC(=O)c1cnc2c(Cl)c(Cl)ccc2c1NCCN1CCOCC1.Cl | 14.3% |
| Cc1ccc2[nH]c3c(=O)n(CC(=O)NCCc4ccc(Cl)cc4)ncc3c2c1 | 7.74% |
| CCOC(=O)c1c(NC(=O)/C=C/C(=O)O)sc(C)c1-c1ccc(Cl)cc1 | 13.8% |
| Brc1ccc(-c2nnc(-c3ccccc3)o2)o1 | -20.6% |
| COc1ccc(/C=C/C(=O)NCCCc2ccccc2)cc1OC | -5.33% |
| CC(=O)c1ccc(S(=O)(=O)NCCC(=O)N2CCN(c3ccccn3)CC2)cc1 | -23.6% |
| CN(c1ccccc1)S(=O)(=O)c1ccc(NC(=O)COc2ccccc2)cc1 | -17.3% |
| O=C(Oc1ccccc1)c1ccccc1OS(=O)(=O)c1ccccc1 | 2.52% |
| CCOc1ccc(C2c3[nH]c4ccccc4c3CCN2C(=O)Cn2cncn2)cc1 (stereo not drawn) | -15% |
| Cc1nc(C)c(C)nc1C | 13.1% |
| Fc1ccc(C2CCCN2Cc2nc(CC3CC3)no2)cc1 (stereo not drawn) | 4.07% |
| Cc1ccc(S(=O)(=O)c2cc3c(=O)n4ccccc4nc3n(C3CCCCC3)c2=N)cc1 | -5.93% |
| O=C(c1ccc(F)cc1)N1CCCC(C(=O)N2CCN(c3ccccc3)CC2)C1 (stereo not drawn) | 13.8% |
| CS(=O)(=O)N(CC(=O)Nc1ccccc1F)C1CCCCC1 | 10.6% |
| CCOC(=O)C1CCCN(Cc2ccc(OCc3ccccc3)c(OC)c2)C1.O=C(O)C(=O)O (stereo not drawn) | -62.2% |
| CN(C)S(=O)(=O)n1cnc(-c2ccccc2)c1-c1ccccc1 | 12.3% |
| Fc1ccc(NC(=S)NC2CC3CCCC(C2)N3Cc2cccs2)cc1 (stereo not drawn) | -59.5% |

| SMILES | hERG current change (%, negative = inhibition) at 10uM |
| --- | --- |
| Cc1nn(CC(=O)NC2CCCCC2)c(=O)c2cccn12 | 6.69% |
| CCCc1nc(C)cc(N2CCN(c3ccccc3)CC2)n1.Cl | -51.7% |
| O=C(Nc1nc2ccccc2s1)c1cc2c(s1)-c1ccccc1OC2 | 3.59% |
| O=C(NCCNC(=O)c1ccccc1)c1ccccc1 | 2.89% |
| CC(Oc1ccc(Cl)cc1Cl)C(=O)/C=C/N(C)C (stereo not drawn) | -7.41% |
| COc1ccccc1CCN1C(=S)NC(C)(C)CC1(C)O (stereo not drawn) | 17% |
| COc1ccc(C(=O)NCC(=O)NCC(=O)OCc2ccc(Br)cc2)cc1 | -10.3% |
| COc1cccc(C2CCCN2Cc2nc(-c3cnccn3)no2)c1 (stereo not drawn) | 7.84% |
| CCCNC(=O)Cn1sc2nc(C)cc(C)c2c1=O | -6.1% |
| Cc1c(C(C)C)c(=O)n(-c2ccc(S(=O)(=O)NC3CC3)cc2)n1C | 27% |
| Cc1nn(CC(=O)Nc2c(F)c(F)cc(F)c2F)c(=O)c2cccn12 | 9.48% |
| O=C(O)C1=C[C@@H](c2ccc3c(c2)OCO3)C[C@@H](OCc2ccc(CO)cc2)O1 | 8.82% |
| O=[N+]([O-])c1cccc(/C=N/n2c(C3CCCCC3)n[nH]c2=S)c1 | 11.9% |
| CCOC(=O)N1CCN(CC(=O)Nc2sc(CC)cc2C(=O)c2ccc(OC)cc2)CC1 | 1.54% |
| COc1ccc(S(=O)(=O)N2CCCN(CC(=O)C(C)(C)C)CC2)cc1 | 4.55% |
| COc1ccc2[nH]c(=O)c(CN(CCCN(C)C)C(=O)Nc3ccccc3)cc2c1 | -29.2% |
| COc1cc(C2Nc3c(F)cccc3C3C=CCC32)cc(Br)c1OC (stereo not drawn) | 2.96% |
| Cc1cc(-c2nnc(SCC(=O)Nc3ccc(S(N)(=O)=O)cc3)n2N)n[nH]1 | -0.116% |
| Cc1cc(C)c2ccc(=O)n(CC(=O)N/N=C/c3ccccc3Cl)c2n1 | 3.67% |
| COC(=O)c1nnn(-c2nonc2N)c1CSCCO | 14.6% |
| O=C(CSc1nnnn1C1CCCC1)NCCc1ccccc1 | -15.7% |

| SMILES | hERG current change (%, negative = inhibition) at 10uM |
| --- | --- |
| Cc1nn(-c2ccccc2)c(Cl)c1/C=C(\C#N)C(=O)NC(C)C | -43.9% |
| COC1=C(C)C(=O)O[C@]12C(=O)C(C)=C1CCCCN3[C@H]([C@@H]4C[C@H](C)C(=O)O4)CC[C@]132 | -0.333% |
| CN(C)c1ccc(C(=O)c2ccccc2C(=O)O)c(O)c1 | 12.7% |
| COc1ccccc1NC(=O)c1oc2ccccc2c1NC(=O)C1CC1 | 1.76% |
| CC1CCCN(S(=O)(=O)c2ccc(C(=O)Nc3nnc(C4=COCCO4)o3)cc2)C1 (stereo not drawn) | 13.9% |
| COc1ccccc1NS(=O)(=O)c1cc(NC(=O)c2ccc(Cl)nc2)ccc1Cl | -8.1% |
| C=CCOC(=O)C1=C(C)NC(SCC(N)=O)=C(C#N)C1c1cccs1 (stereo not drawn) | -13.1% |
| COc1ccc(-c2nnn(CC(=O)N(Cc3cccs3)C(C)C(=O)NCCC(C)C)n2)cc1OC (stereo not drawn) | -13.7% |
| O=C(Nc1ccccc1F)NC1CCN(Cc2nnnn2Cc2ccc(F)cc2)CC1 | -69.2% |
| COc1cc(OC)cc(-c2c(-c3cccs3)c3cc(-c4ccc5cc[nH]c5c4)ccc3n2C)c1 | 21.7% |
| Cc1nn(C)c(Oc2cccc(Cl)c2)c1C(=O)Nc1ccc(F)cc1 | -15.3% |
| COc1ccc(OC)c(Nc2nc(-c3c(C)nc4ncccn34)cs2)c1 | -24.7% |
| COC(=O)c1ccccc1NC(=O)C/C(C)=N/NC(=O)CC#N | 19% |
| Cn1c(=O)[nH]c(=O)c2c1nc(N1CCCCC1)n2CCCSc1nc2ccccc2s1 | -36.3% |
| COc1ccc(-c2cc(C(=O)OCC(=O)NC(C)(C)C)c3ccccc3n2)cc1 | 1.6% |
| COc1ccc(-n2c(=O)c3c4c(sc3n(CC(=O)Nc3cc(C)[nH]n3)c2=O)CCCC4)c(OC)c1 | 12.4% |
| CN(C)S(=O)(=O)c1ccc(NC(=O)/C=C/c2ccccc2Cl)cc1 | 0.456% |
| CC[C@H](C)[C@@H]1O[C@@]2(C=CC1C)CC1C[C@@H](CC=C(C)C(O[C@H]3CC(OC)C(O[C@H]4CC(OC)C(O)C(C)O4)C(C)O3)C(C)C=CC=C3CO[C@@H]4C(O)C(C)=C[C@@H](C(=O)O1)[C@]34O)O2 (stereo partly drawn) | -3.67% |
| CCN1CCN(Cc2ccc(NC(=O)Nc3ccccc3OC)cc2)CC1 | -3.45% |
| O=C(Nc1ccc(O)c2c(=O)cc(-c3cccc(Cl)c3)oc12)c1cccc(Cl)c1 | 2.03% |
| COC(=O)c1ccc(CNC(=O)c2ccc3c(c2)NC(=O)CS3)cc1 | 2.31% |

| SMILES | hERG current change (%, negative = inhibition) at 10uM |
| --- | --- |
| COc1cccc(CN2CCN(Cc3cccc(Oc4ccccc4)c3)CC2)c1OC.O=C(O)C(=O)O | -21.7% |
| COc1ccc(OC(C)c2ccc(C#N)c(=O)[nH]2)cc1 (stereo not drawn) | -2.78% |
| CC(=O)Nc1nonc1NC(=O)COc1ccccc1 | 8.79% |
| O=C1CCCc2c1nc(-c1ccccc1)n2O | 6.59% |
| CC(C)Cc1ccccc1O | -1.45% |
| CNC(=O)C(=O)N1CCC2(CC1)OCCN2S(=O)(=O)c1ccc(C)cc1 | -0.68% |
| Cn1c(=O)c2c(nc(CN3CCN(C(=O)c4ccco4)CC3)n2CC(N)=O)n(C)c1=O | 24.4% |
| Cc1ccc(Nc2nnc(SCC(=O)NCCN3C(=O)CSC3=O)s2)cc1C | -14.7% |
| Cc1nc2c(C)cccc2c2c1CCS2 | 0.813% |
| CCOC(=O)N1CCN(C(=O)CN(c2ccc(C)c(C)c2)S(=O)(=O)c2ccccc2)CC1 | -26.5% |
| CC(=O)N1c2ccc(S(=O)(=O)NCCC(=O)Nc3ccc(C)cn3)cc2CC1C (stereo not drawn) | 11.6% |
| O=C1OC(c2ccc(Cl)cc2)=N/C1=C\c1cccnc1 | 11.8% |
| Oc1cccc(NC(=S)Nc2cccnc2)c1 | 10.9% |
| COC(=O)c1nn(-c2ccccc2)c(Cl)c1/C=N/OCc1ccc(Cl)cc1Cl | 20.6% |
| Cc1ccc(Sc2cc(C(=O)NCCN(C)C)c3ccccc3n2)cc1 | -93.9% |
| O=C(Nc1ccc(-n2cnnn2)cc1)C1CCCN1C(=O)Nc1ccc(Br)cc1 (stereo not drawn) | -79.9% |
| O=C(CCn1nc(-c2ccccc2)ccc1=O)N1CCCC1 | -45% |
| COc1ccc(CN2C(=O)c3cccnc3C2=O)cc1S(=O)(=O)NCc1ccccc1 | -13.1% |
| Cc1ccc(N2C(=O)C3C4C=CC(CNC(=S)N5CCN(c6cccc(C)c6)C(C)C5)(O4)C3C2=O)cc1 (stereo not drawn) | -11% |
| Cc1ccn(CCC(=O)N2CCCC(CCC(=O)N3CCN(c4ccccn4)CC3)C2)n1 (stereo not drawn) | 3.74% |
| CCOC(=O)N1CCN(CCC(=O)Nc2cc(OC)ccc2OC)CC1 | -2.7% |
